Experimental data from PubChem BioAssay AID540267 (National Center for Advancing Translational Sciences (NCATS), 2011).
Among all 340,000 compounds or so, about 530 (0.16%) were called active. Inconclusive means that the source gave no clear call. Such entries were picked first, then a sample of the others. No stated cut-off is given here; in the data, active means activity change below about -80%; inconclusive means between about -30% and that limit; inactive means weaker than that.

experiment: Small Molecules that selectively kill Giardia lamblia: qHTS; conditions: Giardia lamblia trophozoite viability; at 7.66 µM; stronger effect = lower value;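 further: parasites exposed to compound for two days anaerobically before the ATP read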
Outline: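 Luminescent ATP signal served as the viability read-out, measured 15-30 min after adding ATP detection reagent to trophozoites that had been incubated with compounds for 48 hrs at 37 deg C anaerobically at 100 cells/well.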
On the % scale 0 is the no-effect control and ±100 the full control effect.

| Compound | activity change |
| --- | --- |
| COc1ccccc1C(=O)N/N=C(\C)CC(=O)Nc1ccc2c(c1)OCCO2 | inconclusive: -33.5% [inhibitor] |
| COc1cccc(-c2cc3c(-n4cccc4)ncnc3o2)c1 | inactive: -26.2% |
| O=C(Cc1ccc([N+](=O)[O-])cc1)Nc1ccc(C(=O)N2CCOCC2)cc1 | inconclusive: -35.3% [inhibitor] |
| COc1ccc(-n2ncc3c(NC(C)C)ncnc32)cc1 | inconclusive: -30.4% [inhibitor] |
| O=C(C(=O)c1cc(Br)ccc1O)c1cc(Br)ccc1O | inactive: 0.261% |
| Cc1ccc2nc(NC(=O)c3ccco3)sc2c1 | inconclusive: -48.9% [inhibitor] |
| O=S(=O)(/N=C/c1c(O)ccc2ccccc12)c1ccccc1 | inactive: -10.4% |
| CN=C1c2c(-c3ccccc3)c3cc(OC)ccc3n2CCN1C | inactive: 12% |
| N#Cc1ccc(OCC(=O)Nc2ccc3[nH]c(=O)[nH]c3c2)cc1 | inconclusive: -31.2% [inhibitor] |
| COCCn1c(=NC(=O)c2ccc(S(=O)(=O)N3CCCc4ccccc43)cc2)sc2cc(S(C)(=O)=O)ccc21 | inactive: 12.6% |
| Cc1[nH]c(=O)[nH]c(=O)c1N1CCOCC1 | inconclusive: -31.5% [inhibitor] |
| Cc1ccc(C(=O)Nc2ccc3c(c2)OCO3)cc1 | inconclusive: -60.6% [inhibitor] |
| CCC(C)[C@H]1CNCCN1CCCc1cc(OC)c(OC)c(OC)c1 (some centres not stated) | inconclusive: -30.7% [inhibitor] |
| O=[N+]([O-])c1ccc(NCc2ccccc2N2CCC(CO)CC2)nc1 | inconclusive: -51.8% [inhibitor] |
| CC(C)(C)OC(=O)NCCc1n[nH]c(=S)o1 | inactive: 5.95% |
| CCN1/C(=C/C=C/c2oc3ccc(-c4ccccc4)cc3[n+]2CC)Oc2ccc(-c3ccccc3)cc21 | inactive: -20.2% |
| O=C(NC(=S)N1CCN(C/C=C/c2ccccc2)CC1)c1ccc(Cl)nc1 | inconclusive: -30.6% [inhibitor] |
| COc1ccc(-c2onc3ccc(C(C)=O)cc23)cc1 | inconclusive: -54.1% [inhibitor] |
| Cn1c(=O)cc(OCCCC(=O)N2CCN(c3ccccc3)CC2)c2ccccc21 | inactive: 26.5% |
| CCOC(=O)Cn1nnc(-c2cc(OC)c(OC)c(OC)c2)n1 | inconclusive: -31.5% [inhibitor] |
| CCc1nc2nc(C)c(NS(=O)(=O)c3ccc(Br)s3)c(=O)n2[nH]1 | inactive: -21.6% |

| Compound | activity change |
| --- | --- |
| COC(=O)Nc1nc2ccc(SC(C)C)cc2[nH]1 | inconclusive: -61.4% [inhibitor] |
| Clc1ccc2nc(-c3ccccc3)cn2c1 | inconclusive: -38.7% [inhibitor] |
| COc1cc2ccccc2cc1C(=O)Nc1nc(C)c(C(C)=O)s1 | inconclusive: -36.2% [inhibitor] |
| CCc1ccc(C(=O)Cn2ccsc2=N)cc1 | inconclusive: -36.9% [inhibitor] |
| Cc1ccc(Cl)c(Nc2ccccc2C(=O)O)c1Cl | inconclusive: -34% [inhibitor] |
| O=C(COc1ccccc1)Nc1nnc(-c2ccco2)o1 | inactive: -9.08% |
| Cc1cc(C)c(NC(=O)Cn2cc3c(n2)CCCC3)c(C)c1 | inconclusive: -31.2% [inhibitor] |
| COc1ccc(OC)c(CN2CCN(CCc3ccccc3)C(CCO)C2)c1 (configuration not stated) | inconclusive: -38.3% [inhibitor] |
| CC(c1ccccc1)C1CC(=O)N(Cc2ccccc2)C1=O (configuration not stated) | inconclusive: -36.2% [inhibitor] |
| Cc1[nH]c(=O)c(C(=O)/C=C/c2ccccc2F)c2c1CCCC2 | inactive: 7.52% |
| CC(C)C(NC(=O)c1c(F)cccc1F)C(=O)NNC(=O)c1ccccc1 (configuration not stated) | inconclusive: -39.6% [inhibitor] |
| O=C(Nc1nccs1)c1cccc(S(=O)(=O)N2CCCCC2)c1 | inconclusive: -30.4% [inhibitor] |
| CN1CCOc2cc(S(=O)(=O)N3CCN(c4nc(-c5cccs5)nc5ccccc45)CC3)ccc21 | inactive: 0.948% |
| CCC(C)N(C(=O)c1csnn1)C(C(=O)NCc1ccc(F)cc1)c1ccco1 (configuration not stated) | inactive: 10.5% |
| Cc1noc(C)c1C(=O)N1CCN(c2cccc(Cl)c2)CC1 | inactive: -3.21% |
| C[C@H](NC(=O)C1CC(=O)N(c2ccc3c(c2)OCO3)C1)C(=O)NC1CCCCC1 (some centres not stated) | inconclusive: -30.1% [inhibitor] |
| N=c1c(C(=O)NC2CCCC2)cc2c(=O)n3ccccc3nc2n1Cc1ccccc1 | inconclusive: -35.3% [inhibitor] |
| CCOC(=O)C(NC(=O)C1C(C)N1S(=O)(=O)c1ccc(C)cc1)C(=O)OCC (configuration not stated) | inactive: 10.2% |
| CCOc1ccc(NC(=O)C2CCCN(S(=O)(=O)c3ccc4c(c3)CC(C)N4C(C)=O)C2)cc1 (configuration not stated) | inactive: -0.947% |
| CCN(CC)CCOC(=O)c1ccc(N/C=C(/C#N)c2nc(-c3cc4ccccc4oc3=O)cs2)cc1 | active: -88.6% |
| CN(C)/C=C/C(=O)c1ccccc1OCc1cnc(Cl)s1 | inconclusive: -30.4% [inhibitor] |

| Compound | activity change |
| --- | --- |
| Cc1ccsc1C1NC(=O)c2c(sc3c2CCCC3)N1 (configuration not stated) | inactive: 3.49% |
| O=C(Nc1ccc(-c2cn3ccccc3n2)cc1)c1ccco1 | inconclusive: -49.8% [inhibitor] |
| Cc1ccc(C(=O)NC2CCCCC2)cc1 | inconclusive: -40.7% [inhibitor] |
| Cn1c(=O)c2cc(S(=O)(=O)NCCC(=O)N3CC=C(c4ccccc4)CC3)ccc2n(C)c1=O | inactive: -12.2% |
| COc1ccc(C2/C=C\CN(Cc3ccco3)C(C)C(=O)N2Cc2ccc(F)cc2)cc1 (configuration not stated) | inconclusive: -35.3% [inhibitor] |
| CC1CCCN(c2ccc(C(=O)Nc3cccnc3)cc2[N+](=O)[O-])C1 (configuration not stated) | inactive: -7.68% |
| Cc1oncc1C(=S)Nc1ccccc1 | inactive: 3.14% |
| CCOC(=O)C1=NS(=O)(=O)NC(C)=C1 | inactive: 9.1% |
| O=C(/C=C/c1cccc2ccccc12)c1ccncc1 | inconclusive: -31.9% [inhibitor] |
| COc1cc(C)nn1-c1ccc(Cl)cc1 | inconclusive: -40% [inhibitor] |
| CN1/C(=C/C(=O)C2CC2)C(C)(C)c2ccccc21 | inactive: 6.4% |
| Cc1ccc(S(=O)(=O)N2[C@@H](c3ccccc3F)C(C(=O)O)=CC[C@H]2c2ccc(C(C)C)cc2)cc1 | inconclusive: -30.6% [inhibitor] |
| COc1cc(NC(C)=O)c2ncccc2c1[N+](=O)[O-] | inactive: 1.04% |
| CCN(CC(=O)Nc1ccc(NC(C)=O)cc1)C(=O)c1cc([N+](=O)[O-])ccc1Sc1ccc(Cl)cc1 | inactive: 4.78% |
| Cc1cc2nc(C)c(Cl)c(=O)n2[nH]1 | inconclusive: -34.6% [inhibitor] |
| CCn1c(SCc2ccc(Cl)cc2)nc2nc3c(cc2c1=O)CCCC3 | inconclusive: -37% [inhibitor] |
| O=S(=O)(Cc1cc(NCc2ccccc2)nc(-c2ccccn2)n1)c1ccccc1 | inactive: 5.25% |
| COC(=O)c1ccc(C2N=C(c3cccs3)CC(c3ccccc3O)N2)cc1 (configuration not stated) | inactive: -17.7% |
| O=C(CCCOc1ccccc1)N1CCN(S(=O)(=O)c2ccccc2)CC1 | inactive: 12.2% |
| C=CCNC(=O)c1ccccc1NC(=O)COc1ccccc1 | inconclusive: -56.1% [inhibitor] |
| Oc1ccc(Br)cc1-c1nc2cnccn2c1NC1CCCCC1 | inactive: 4.01% |

| Compound | activity change |
| --- | --- |
| O=[N+]([O-])c1nn(-c2ccc(Cl)cc2)n(O)c1=NCc1ccccc1 | inconclusive: -65.9% [inhibitor] |
| CC(C)(C)c1ccc(C(=O)Nc2cccc(-n3cnnn3)c2)cc1 | inconclusive: -47.7% [inhibitor] |
| Cc1ccc(-c2c(C(=O)N/N=C/C3CC=CCC3)nnn2-c2nonc2N)cc1 (configuration not stated) | inconclusive: -47.3% [inhibitor] |
| COc1cc(C=O)ccc1Oc1ccc(S(=O)(=O)N2CCOCC2)cc1[N+](=O)[O-] | inactive: -9.78% |
| O=C(c1ccccc1Cl)N1CCC(O)(c2cccnc2)CC1 | inconclusive: -35.1% [inhibitor] |
| Cc1cc(/C=N/NC(=O)c2cccc([N+](=O)[O-])c2)c(C)n1-c1ccc(Cl)cc1Cl | inactive: -4.39% |
| NC(=O)c1c(-c2ccc(Cl)cc2Cl)csc1NC(=O)Cc1ccccc1 | inactive: -18.7% |
| O=c1c2ccccc2cnn1-c1nc2ccccc2[nH]1 | active: -91.5% |
| COc1cc(SC)ccc1C(=O)Nc1ccc2ncccc2c1 | inconclusive: -35.1% [inhibitor] |
| COCC(C)n1c(C)cc(C(=O)COC(=O)c2cc(=O)[nH]c3ccccc23)c1C (configuration not stated) | inconclusive: -33.7% [inhibitor] |
| O=C(Cc1cccc(NC(=O)C2CCCN(C(=O)C3CCC3)C2)c1)Nc1ccc(C(=O)N2CCOCC2)cc1 (configuration not stated) | inconclusive: -37.8% [inhibitor] |
| CNC(=S)N/N=C(\C)c1ccccc1 | inactive: 3.23% |
| O=C(CC(=O)Nc1ccc(Br)cc1)Nc1ccc(Br)cc1 | inconclusive: -32.1% [inhibitor] |
| Cc1cc(C)nc(N2CCCC(C(=O)NCc3ccc4c(c3)OCO4)C2)n1 (configuration not stated) | inconclusive: -34% [inhibitor] |
| CCCN(CC1CC1)c1nc(N)c2c(N)nc(OC)cc2c1C#N | inconclusive: -44% [inhibitor] |
| O=C(CSc1nnc2scc(-c3ccc(Cl)cc3)n12)NCc1ccco1 | inactive: -2.6% |
| O=C(COc1ccccc1-c1ccccc1)NNC(=O)NC1CCCCC1 | inactive: -9.45% |
| Cc1ccccc1-n1ncc2c(SCC(=O)NCc3cccs3)ncnc21 | inactive: 14.3% |
| CCSc1cc(Cl)nc(N)n1 | inconclusive: -33% [inhibitor] |
